Experimental data taken from PubChem BioAssay AID485281 (National Center for Advancing Translational Sciences (NCATS), 2010).
Hit rate of the full screen: of about 350,000 compounds, about 260 (0.074%) were called active. The inconclusive results got no clear call from the source; some entries with a clear call stand among them for comparison. Calls follow the shape of the dose curve; as a rule, active = well fitted inhibition curve with a large enough effect; inconclusive = small, poorly fitted or top-dose-only effect; inactive = no such curve, though single readings can be large or run the other way. Where the call is inconclusive, the potency comes from a doubtful curve fit.

target: Ferritin light chain (Equus caballus) (UniProt P02791); test: qHTS Assay for Identification of Novel General Anesthetics; conditions: apoferritin/1-aminoanthracene competitive binding, fluorescence; activity change, negative = displacement: at 77.5 µM (top of the series); also: nearly all actives have a fitted effect of over 20% in size
Outline: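 Read-out: endpoint 1-AMA fluorescence, excitation 380 nm and emission 535 nm, after compounds sit 10 min at room temperature with 10 uM horse-spleen apoferritin in 50% saturated 1-AMA/PBS. Values come from four-parameter Hill fits.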
% is scaled to controls: 0 for no effect and ±100 for the full control effect; potency is read from the fitted curve at half-maximal effect; tags tell the direction and shape of the fitted curve.

UniProt P02791, sequence (P02791 whole entry, looked up): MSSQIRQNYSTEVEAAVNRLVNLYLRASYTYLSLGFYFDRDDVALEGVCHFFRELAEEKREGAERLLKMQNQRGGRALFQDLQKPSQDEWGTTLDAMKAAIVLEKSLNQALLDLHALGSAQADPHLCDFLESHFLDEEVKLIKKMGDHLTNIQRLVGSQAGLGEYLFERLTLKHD

Potency, inconclusive:
CCN(CC)c1ccc(Nc2nc(N3CCOCC3)c3ccccc3n2)cc1 35.5 µM [inhibitor, partial curve]
CCc1ccc(CNC(=O)COc2cc(=O)n(CC)c3ccccc23)cc1 17.8 µM [inhibitor, partial curve]
CC1CCC(NC(=O)CN2CCC(n3nnc4cc(F)ccc43)CC2)CC1 (stereo not given) 14.1 µM [inhibitor, partial curve]
O=C(NCc1ccc2c(c1)OCO2)c1cc(Cl)ccc1Cl 35.5 µM [inhibitor, partial curve]
Cc1ccc(-c2cc(-c3ccc4c(c3)OCO4)c(C#N)c(N)n2)o1 35.5 µM [inhibitor, partial curve]
COC1CCCN(C(=O)c2ccc3oc(Cc4ccc(Cl)cc4)nc3c2)C1 (stereo not given) 20 µM [inhibitor, partial curve]
COc1ccc2nc(N(Cc3cccnc3)C(=O)C3COc4ccccc4O3)sc2c1 (stereo not given) 0.794 µM [inhibitor, partial curve, poor fit]
O=C(CC12CC3CC(CC(C3)C1)C2)NCc1ccncc1 39.8 µM [inhibitor, single point]
CCCOc1ccc(CN(C(=O)c2cc(=O)c3ccc(C)cc3o2)C2CCS(=O)(=O)C2)cc1 (stereo not given) 35.5 µM [inhibitor, partial curve]
COC(=O)c1sc2ncccc2c1OCc1c(Cl)cccc1Cl 44.7 µM [inhibitor, single point]
C=C(C)/C=N/NC(=S)Nc1ccc(S(=O)(=O)N2CCOCC2)cc1 39.8 µM [inhibitor, partial curve]
COc1cccc(C(=O)CC2(O)C(=O)Nc3ccc(Cl)cc32)c1 (stereo not given) 35.5 µM [inhibitor, partial curve]
Brc1ccccc1Cn1cnc2ccccc21 31.6 µM [inhibitor, partial curve]
N#Cc1c(/N=C\c2ccc(O)c([N+](=O)[O-])c2)sc2c1CCCC2 35.5 µM [inhibitor, single point]
O=c1[nH]nc(CNc2cccc(C(F)(F)F)c2)c2ccccc12 39.8 µM [inhibitor, single point]
C=CCOc1c(Cl)cc(CNc2ccc(N(C)C)cc2)cc1OC 17.8 µM [inhibitor, partial curve]
NC(=O)C1CCN(C(=O)Cc2ccsc2)CC1 31.6 µM [inhibitor, single point]
CCOc1ccccc1Nc1sc(C(=O)c2ccccc2)c(N)c1C(=O)NCCc1ccccc1 11.2 µM [inhibitor, full curve]
O=C(c1ccc(Cl)cc1)N(Cc1ccco1)Cc1ccco1 35.5 µM [inhibitor, single point]
CCCC(=O)NC1=C(C#N)C2(CCCCC2)Cc2ccccc21 28.2 µM [inhibitor, single point]
CC(C)CNc1nc(NC(C)(C)C)nc(Oc2ccc(=O)n(-c3ccccc3)n2)n1 14.1 µM [inhibitor, partial curve]
Cc1ccc(N(C)C(=O)Cn2cnc3onc(-c4ccc(F)cc4)c3c2=O)cc1C 2 µM [inhibitor, full curve, poor fit]
O=C(Nc1cc(C(F)(F)F)ccc1F)C1CCCC1 39.8 µM [inhibitor, partial curve]
CN(Cc1ccccc1)C(=O)C1CCCN(Cc2ccc(Cl)cc2)C1 (stereo not given) 22.4 µM [inhibitor, partial curve]
Nc1cc2c(cc1C(=O)c1ccccc1)OCCO2 35.5 µM [inhibitor, partial curve]
O=C(Nc1cccc([N+](=O)[O-])c1)C1COc2ccccc2O1 (stereo not given) 35.5 µM [inhibitor, partial curve]
CN1CCCC(OC(=O)c2cc(Br)ccc2Cl)C1 (stereo not given) 31.6 µM [inhibitor, partial curve]
CC(COc1ccccc1)N1CCC(CO)(CCc2ccccc2)CC1 (stereo not given) 39.8 µM [inhibitor, single point]
C=CCn1cnc2scc(-c3ccccc3)c2c1=O 50.1 µM [inhibitor, single point]
CCC(C)(C)n1nnnc1C(c1cc2ccc(OC)cc2[nH]c1=O)N1CCc2ccccc21 (stereo not given) 2.51 µM [inhibitor, full curve]
CC(=O)Nc1ccc(S(=O)(=O)NNC(=O)COc2ccc(C(C)(C)C)cc2)cc1 20 µM [inhibitor, partial curve]
Cc1c(C(=O)NNC(=S)NCc2ccc(Cl)cc2)oc2ccccc12 8.91 µM [inhibitor, partial curve]
Cc1ccc(OCC(=O)N/N=C\c2c(C)n(C)c3ccccc23)c([N+](=O)[O-])c1 31.6 µM [inhibitor, partial curve]
Cc1c(CNCc2ccc(OC(C)C)cc2)c(C(=O)O)c(C)n1Cc1ccc(Cl)cc1 12.6 µM [inhibitor, partial curve]
O=C(COC(=O)CCC(=O)c1cccs1)Nc1cc(S(=O)(=O)N2CCOCC2)ccc1Cl 17.8 µM [inhibitor, partial curve]
Cc1ccc(C)c(CN2C(=O)c3ccccc3S(=O)c3ccc(C(=O)N4CCC(C)CC4)cc32)c1 (stereo not given) 15.8 µM [inhibitor, partial curve]
Cc1cccc(N2CCN(C(=O)c3ccc4c(c3)NC(=O)C(CSCc3ccc(F)cc3)N4)CC2C)c1 (stereo not given) 31.6 µM [inhibitor, single point]
CC1CCCC(NC(=O)COC(=O)CCSc2ccccc2)C1C (stereo not given) 28.2 µM [inhibitor, partial curve]
S=c1nc[nH]c2c1[nH]c1ccccc12 50.1 µM [inhibitor, single point]
CC(C)(C)C1CCc2sc(C(=O)NNC(=O)CCl)cc2C1 (stereo not given) 35.5 µM [inhibitor, partial curve]
CCOc1ccc(NC(=O)c2c(NCc3sccc3C)sc3c2CCCCC3)cc1 25.1 µM [inhibitor, partial curve]
Cc1ccc(Cn2c(=N)n(CC(O)COc3ccccc3)c3ccccc32)cc1 (stereo not given) 17.8 µM [inhibitor, partial curve]
Cc1cc(=O)oc2cc(OCC3CC(c4ccccc4)=NO3)ccc12 (stereo not given) 20 µM [inhibitor, partial curve]
NNC(=S)NC1CC2CC1C1C=CCC21 (stereo not given) 17.8 µM [inhibitor, partial curve]
O=C1NN(c2ccccc2)C(=O)/C1=C\c1cccc(OC(=O)c2cccs2)c1 39.8 µM [inhibitor, partial curve]
S=c1[nH]nc(-c2cc(-c3ccco3)[nH]n2)n1-c1cccc2ccccc12 35.5 µM [inhibitor, partial curve]
COc1ccc(F)cc1S(=O)(=O)N1CC(C)CC(C)C1 (stereo not given) 39.8 µM [inhibitor, partial curve]
O=C(CN1C(=O)c2ccccc2S1(=O)=O)NC(Nc1ccccc1F)C(Cl)(Cl)Cl (stereo not given) 12.6 µM [inhibitor, partial curve]

Potency, active:
Cc1cc(OC(C)C)c2c(-c3ccccc3)cc(=O)oc2c1 17.8 µM

Activity change, negative = displacement, inactive:
Cc1cc(C(=O)COC(=O)c2ccc3c(c2)NC(=O)CS3)c(C)n1CCc1ccc(Cl)cc1 -4.31%
Cc1ccccc1NC(=S)Nc1cccc2cnccc12 -23.3%
CCCC[C@H]1COCCS(=O)(=O)N1Cc1ccc(Br)cc1 -6.29%
CCOc1ccccc1CN1CCc2nc(N3CCN(c4ccccc4F)CC3)ncc2C1 16.2%
Nc1ccc2nc3c(=O)n(CCc4ccccc4)c(=O)[nH]c3nc2c1 110%
O=C(Nc1ccncc1)c1ccc(NS(=O)(=O)c2cccc(F)c2)cc1 2.7%
COc1cc(OC)cc(C(=O)Nc2ccc3oc(-c4ccccc4C)nc3c2)c1 -0.232%
O=C(NCC(Cl)c1ccc2ccccc2c1)c1c(F)cccc1F (stereo not given) -18.1%
CNC(=O)CSc1nnnn1-c1cc(C)ccc1C 2.19%
CCOC(=O)c1sc(NC(=O)CSc2nc3c(cc2C#N)CCCCC3)c(C#N)c1C -15%
Cc1ccc(Sc2ccc([N+](=O)[O-])cc2[N+](=O)[O-])nc1 -11.8%
Cc1nn(-c2ccccc2)c2ncc(C(=O)c3cc(Cl)ccc3O)cc12 -11.7%
CCOc1cc2[nH]c(=O)n(CCCC(=O)NCc3ccco3)c(=O)c2cc1OCC -7.64%
C/C(=N\O)c1ccc2c(c1)OCCO2 -23.9%
CCN1C(=O)/C(=C/C=C2/Sc3ccccc3N2CCO)SC1=S -12.9%
CC1(C)C=C(c2ccc(C=O)s2)CC(C)(C)N1 -8.15%
O=C1Nc2cc(C(=O)NCCCN3CCCC3)ccc2S/C1=C/c1ccccc1F -20.2%
CC(=O)Nc1ccc(NC(=O)CSc2ccc(-c3ccc4c(c3)OCO4)nn2)cc1 4.22%
COc1ccc(C2/C(=C(\O)c3cc(C)ccc3C)C(=O)C(=O)N2CCN(C)C)cc1OC (stereo not given) -10.7%
Cc1c(NC(=O)c2ccc(C(C)(C)C)cc2)cccc1[N+](=O)[O-] -14.7%
COc1ccc2oc(=O)c(-c3nc(C)cs3)cc2c1 -19.2%
